# Data published in PMC6212790.
# Some of the results follow. At the low end of the ranking, values are background and their order means little.
# Target: T1, GST-Rok (full length) (UniProt O34857)
# T1 sequence: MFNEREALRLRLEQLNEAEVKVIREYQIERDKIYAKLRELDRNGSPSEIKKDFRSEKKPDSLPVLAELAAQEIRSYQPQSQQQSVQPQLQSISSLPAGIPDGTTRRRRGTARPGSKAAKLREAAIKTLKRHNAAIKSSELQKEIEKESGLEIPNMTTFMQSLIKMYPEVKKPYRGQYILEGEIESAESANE
# Experiment: protein binding microarray;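 note: rank score from −0.5 (least bound) to 0.5 (best bound)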
# Settings: Rok is a gene silencer of Bacillus subtilis; high values mean tight binding; most listed sequences are background and not binding sites; double strand, one strand shown
row,Sequence,binding signal
1,GACTTTTA,0.194 E-score
2,CTACTGCC,0.049 E-score
3,CGGGCAGA,-0.214 E-score
4,GTAGAGGA,-0.0583 E-score
5,ACCGAAGA,0.0215 E-score
6,CATAGAGA,0.0892 E-score
7,TCGAATCA,-0.0502 E-score
8,AATCTAGC,0.2 E-score
9,ACATCGTG,0.0127 E-score
10,GCAAGGGA,-0.226 E-score
11,CTAAGCAG,-0.152 E-score
12,GAGGCCTA,-0.0425 E-score
13,TAAATCAA,0.22 E-score
14,GTCGTTAA,0.0409 E-score
15,GCAGCACA,-0.0624 E-score
16,AATGATAC,0.282 E-score
17,ATTTATAG,0.398 E-score
18,GAAGGTGC,-0.256 E-score
19,AAAGATAG,0.105 E-score
20,AGTATTGC,0.121 E-score
21,CGACGGAA,-0.0212 E-score
22,CCCTTCCA,-0.361 E-score
23,CCTACCGC,-0.00889 E-score
24,CCTGAGCC,-0.402 E-score
25,CCTTTATA,0.203 E-score

row,Sequence,binding signal
1,GCGTCCTA,-0.102 E-score
2,CTCTACGC,-0.107 E-score
3,ATCTGTTG,0.0207 E-score
4,CGATCTAC,0.371 E-score
5,GGTGATGA,-0.0632 E-score
6,AGGGGTTC,-0.215 E-score
7,ACAATTGC,0.171 E-score
8,CGTTGACC,-0.0875 E-score
9,CACTCTTA,-0.0607 E-score
10,GAGAATAA,0.0741 E-score
11,AGGAAAAG,-0.291 E-score
12,ACAGCACC,-0.0663 E-score
13,CACCGGGA,-0.422 E-score
14,CCACGTAA,0.0542 E-score
15,ACCTAACT,0.173 E-score
16,AGATTAAC,0.181 E-score
17,CGTGGAGC,-0.191 E-score
18,AAGTATAC,0.251 E-score
19,ACACGCAT,0.234 E-score
20,TGCTGGAA,-0.0855 E-score
21,CATCTCAA,-0.0148 E-score
22,CAAACTTA,0.162 E-score
23,GTCAGGAA,-0.107 E-score
24,AGTAGGCG,-0.0783 E-score
25,TGCACGAA,0.0368 E-score

row,Sequence,binding signal
1,GCAAGCTA,-0.0525 E-score
2,ACCACGAC,0.0231 E-score
3,CCCTCCCA,-0.249 E-score
4,AGGAAAAT,0.215 E-score
5,CATTTAAA,0.14 E-score
6,AAGCATTA,0.156 E-score
7,GATGCCAA,-0.188 E-score
8,GGCCAAGA,-0.00611 E-score
9,GACCGGAC,-0.187 E-score
10,AATTGAAT,0.0729 E-score
11,AAGCCACC,-0.219 E-score
12,GCACGAAC,-0.218 E-score
13,ACGAATTG,0.15 E-score
14,GGCTGCTA,-0.14 E-score
15,CAACAGCC,-0.16 E-score
16,ACGTAGCG,0.103 E-score
17,GTGGTCGA,-0.148 E-score
18,CCTCTAGA,-0.115 E-score
19,GGAATGGA,-0.184 E-score
20,CTCCGATA,-0.0935 E-score
21,TACTAGTA,0.45 E-score
22,ATATGAGC,-0.0205 E-score
23,AACCTATC,0.193 E-score
24,ACACCTAC,0.145 E-score
25,CTGGCGGA,-0.282 E-score

row,Sequence,binding signal
1,ACCACACG,0.19 E-score
2,GGGATGCA,-0.178 E-score
3,CACGGGGC,-0.282 E-score
4,TGAGGCAA,-0.209 E-score
5,CATGACGA,0.0373 E-score
6,TCCAAGGA,0.097 E-score
7,GCCCAAGC,-0.322 E-score
8,CGACTACC,-0.0406 E-score
9,CGCGGAGA,-0.139 E-score
10,CTTCCTAC,0.107 E-score
11,GCTATGTA,0.14 E-score
12,CGCGCGAA,0.0414 E-score
13,GCTGTAGA,0.0153 E-score
14,CGTACTTA,0.264 E-score
15,GATCCCGA,0.0608 E-score
16,AGGATCAC,-0.0581 E-score
17,CTTTAAGC,-0.155 E-score
18,AGTCTAAC,0.0131 E-score
19,GCGTTAGA,-0.0102 E-score
20,GCAATATA,0.281 E-score
21,CAGAGCTC,-0.162 E-score
22,ATACCGTA,0.275 E-score
23,GTCATCTA,0.113 E-score
24,AGACGGAA,-0.257 E-score
25,ACTGCTAG,-0.0701 E-score

row,Sequence,binding signal
1,ACGGTCCC,-0.37 E-score
2,CAACGCAG,-0.0825 E-score
3,CTCATGAG,-0.152 E-score
4,AGAGGATA,0.127 E-score
5,CCGGCCAC,-0.248 E-score
6,AGGCTCCC,-0.396 E-score
7,ACAGGGCG,-0.298 E-score
8,AAATTTAG,0.163 E-score
9,AATGGTTC,-0.113 E-score
10,ACATAAAG,-0.139 E-score
11,CGCTAGTC,-0.0204 E-score
12,ACTGAGCA,-0.062 E-score
13,ATACCATG,0.277 E-score
14,AGGTGGAA,-0.0285 E-score
15,AGCCTCCC,-0.325 E-score
16,AAGTTCGG,0.0724 E-score
17,AACGCACT,0.0323 E-score
18,AGCGTTCC,-0.0101 E-score
19,CTGCGTCA,-0.201 E-score
20,GAGTTGAA,0.00685 E-score
21,GCTGCCGA,-0.27 E-score
22,GAGAGGCA,-0.321 E-score
23,ATGCTTGG,0.0139 E-score
24,CACAGAAA,0.124 E-score
25,CTACACCA,0.135 E-score

row,Sequence,binding signal
1,AATGAGCG,-0.182 E-score
2,ATTTTTGG,0.214 E-score
3,CCCACAGG,-0.304 E-score
4,ACTCAGGC,-0.102 E-score
5,ATAAAAAG,0.157 E-score
6,ATAAGTGA,0.123 E-score
7,GGTCCCAA,-0.129 E-score
8,CCTGGACA,-0.0802 E-score
9,CAACCCCG,-0.331 E-score
10,GTTTCTTA,0.226 E-score
11,ACTGCAGG,-0.114 E-score
12,CGATGTAA,0.000585 E-score
13,CATGTGGA,0.072 E-score
14,AACAGAAC,-0.0552 E-score
15,GAGAGATC,0.0196 E-score
16,GATGGTTA,0.0373 E-score
17,ATAGCGAT,0.0956 E-score
18,CCTGAACA,-0.0722 E-score
19,TGCCTGAA,-0.0566 E-score
20,AAACAAAC,-0.268 E-score
21,CAGACCAG,-0.334 E-score
22,CTCGCGTC,-0.369 E-score
23,ACGGCTGA,-0.0768 E-score
24,AACCGAAT,0.0509 E-score
25,ATCTCCAC,0.0613 E-score

row,Sequence,binding signal
1,AGTCATCA,-0.0381 E-score
2,GGAATTGA,0.0869 E-score
3,CCGAGTCG,-0.123 E-score
4,ACTGCCAA,-0.204 E-score
5,AAATGTTG,0.0761 E-score
6,GGACGGCC,-0.334 E-score
7,CGTGCCCA,-0.347 E-score
8,GCAACTCA,-0.177 E-score
9,GAGAACTA,0.326 E-score
10,ATCGATCA,0.205 E-score
11,AGTATAAC,0.214 E-score
12,GGAAGCAA,-0.0536 E-score
13,CATTGATC,0.00852 E-score
14,ATCTGCCG,0.0903 E-score
15,GCGATTAC,-0.0455 E-score
16,AATTCTCG,0.191 E-score
17,CTCGTGAC,-0.151 E-score
18,ACCCCTCA,-0.332 E-score
19,CGTTTTGA,-0.0508 E-score
20,CTGTTGCA,-0.00274 E-score
21,TAGATACA,0.316 E-score
22,AACCGTCG,-0.0152 E-score
